Data taken from publication PMC2843631.
Substitutions are numbered along the chain they refer to. Results are given in words; binding and its absence hold for the method and conditions named. Binding seen in cells or lysates may run through a third protein. Some entries that bind do so weakly or less than the wild type. Where a sequence is shown, tags or fusion partners need not be part of it.

T1: IKKα, Flag-tagged (human) (UniProt O15111)
T1 sequence: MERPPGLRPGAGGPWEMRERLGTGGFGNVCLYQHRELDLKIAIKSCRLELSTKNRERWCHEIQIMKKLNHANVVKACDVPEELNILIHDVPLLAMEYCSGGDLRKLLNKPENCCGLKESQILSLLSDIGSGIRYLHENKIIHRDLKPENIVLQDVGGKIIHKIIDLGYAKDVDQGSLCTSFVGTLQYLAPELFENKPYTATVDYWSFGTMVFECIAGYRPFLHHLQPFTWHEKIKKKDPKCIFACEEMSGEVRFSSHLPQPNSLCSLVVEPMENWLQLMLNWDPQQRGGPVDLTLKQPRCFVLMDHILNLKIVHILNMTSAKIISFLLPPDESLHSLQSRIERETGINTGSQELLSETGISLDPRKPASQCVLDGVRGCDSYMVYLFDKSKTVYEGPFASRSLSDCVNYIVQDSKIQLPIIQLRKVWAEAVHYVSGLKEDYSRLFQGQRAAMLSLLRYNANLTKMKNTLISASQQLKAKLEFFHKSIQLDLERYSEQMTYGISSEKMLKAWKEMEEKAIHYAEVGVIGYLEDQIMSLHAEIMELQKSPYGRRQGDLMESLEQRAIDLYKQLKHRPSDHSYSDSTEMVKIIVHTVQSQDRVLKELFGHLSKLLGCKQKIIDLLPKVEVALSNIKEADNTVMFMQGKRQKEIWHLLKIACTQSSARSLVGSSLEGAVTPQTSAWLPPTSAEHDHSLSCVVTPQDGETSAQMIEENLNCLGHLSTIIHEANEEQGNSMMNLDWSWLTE

T2: IKKβ, Flag-tagged (human) (UniProt O14920)
T2 sequence: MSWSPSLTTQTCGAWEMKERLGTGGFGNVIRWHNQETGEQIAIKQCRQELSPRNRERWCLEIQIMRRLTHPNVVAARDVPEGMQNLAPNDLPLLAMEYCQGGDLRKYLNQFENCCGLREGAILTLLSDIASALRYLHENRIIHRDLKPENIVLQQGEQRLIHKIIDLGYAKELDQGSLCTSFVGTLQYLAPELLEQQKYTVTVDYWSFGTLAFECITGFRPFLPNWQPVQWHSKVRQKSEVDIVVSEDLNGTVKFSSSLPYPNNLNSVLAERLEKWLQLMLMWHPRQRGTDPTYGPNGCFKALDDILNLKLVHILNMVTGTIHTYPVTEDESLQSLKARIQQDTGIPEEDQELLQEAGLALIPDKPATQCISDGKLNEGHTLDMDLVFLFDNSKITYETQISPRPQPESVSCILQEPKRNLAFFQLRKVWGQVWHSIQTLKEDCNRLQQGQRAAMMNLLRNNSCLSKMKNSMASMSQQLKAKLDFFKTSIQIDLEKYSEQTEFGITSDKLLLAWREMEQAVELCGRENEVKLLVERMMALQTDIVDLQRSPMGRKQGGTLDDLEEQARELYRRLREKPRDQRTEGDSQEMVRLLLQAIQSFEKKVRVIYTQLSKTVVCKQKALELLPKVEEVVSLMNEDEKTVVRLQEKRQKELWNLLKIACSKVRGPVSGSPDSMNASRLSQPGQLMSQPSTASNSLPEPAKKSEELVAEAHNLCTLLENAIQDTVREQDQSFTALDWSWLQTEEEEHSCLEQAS

B1: Hsp60c mutant, K28 substituted with glutamate, HA-tagged (domain or fragment, UniProt P10809 27-573)
chain: AEDVKFGADARALMLQGVDLLADAVAVTMGPKGRTVIIEQSWGSPKVTKDGVTVAKSIDLKDKYKNIGAKLVQDVANNTNEEAGDGTTTATVLARSIAKEGFEKISKGANPVEIRRGVMLAVDAVIAELKKQSKPVTTPEEIAQVATISANGDKEIGNIISDAMKKVGRKGVITVKDGKTLNDELEIIEGMKFDRGYISPYFINTSKGQKCEFQDAYVLLSEKKISSIQSIVPALEIANAHRKPLVIIAEDVDGEALSTLVLNRLKVGLQVVAVKAPGFGDNRKNQLKDMAIATGGAVFGEEGLTLNLEDVQPHDLGKVGEVIVTKDDAMLLKGKGDKAQIEKRIQEIIEQLDVTTSEYEKEKLNERLAKLSDGVAVLKVGGTSDVEVNEKKDRVTDALNATRAAVEEGIVLGGGCALLRCIPALDSLTPANEDQKIGIEIIKRTLKIPAMTIAKNAGVEGSLIVEKIMQSSSEVGYDAMAGDFVNMVEKGIIDPTKVVRTALLDAAGVASLLTTAEVVVTEIPKEEKDPGMGAMGGMGGGMGGGMF
B2: Hsp60c mutant, D423 substituted with alanine, HA-tagged (domain or fragment, UniProt P10809 27-573)
chain: B1 chain with E2K, D397A
B3: (His)6-tagged IKKβ (protein, UniProt O14920 1-756)
chain: T2 sequence
B4: Hsp60c, cytosol-targeted version of Hsp60 lacking the mitochondrial targeting sequence, HA-tagged, P10809 27-573 (domain or fragment)
chain: B1 chain with E2K

Legend:
[1] = target: T1, IKKα, Flag-tagged (human); assay: co-IP; 293T cells co-transfected with Hsp60c constructs (HA tag) and each of the IKK subunit proteins (Flag tag) for 24 hrs
[2] = target: T2, IKKβ, Flag-tagged (human); assay: as above
[3] = target: glutathione-S-transferase (GST)-fused Hsp60 (human) (UniProt P10809); assay: pull-down; 1.0 µg GST-Hsp60 pre-bound to glutathione-Sepharose beads incubated with lysates of Sf9 insect cells expressing (His)6-tagged IKKs, 4°C, 2 hrs; washed with lysis buffer A; immunoblot; only the target purified
[4] = target: IKKγ, Flag-tagged (human), Q9Y6K9; assay: co-IP; 293T cells co-transfected with Hsp60c constructs (HA tag) and each of the IKK subunit proteins (Flag tag) for 24 hrs; settings: remark: other sources report otherwise

Binder	binding [1]	binding [2]	binding [3]	binding [4]
B1	binds	binds		
B2	binds	binds		
B3			binds	
B4				no binding
